Results as given in the supplement of paper PMC3334620.
The full ranking holds about 33,000 sequences; the median of “E-score (-0.5 to 0.5)” is about -0.016, and the highest 2% start at about 0.32. This is one part of the list.

Each sequence was assayed against T1, Stp1 (UniProt B3LFK1) (assay: PBM E-score (8-mer binding enrichment) (E-score (-0.5 to 0.5)); higher = stronger / more preferred TF binding; most listed sequences are background and not binding sites). Details: protein concentration: 200 nM; construct: GST-full length.
T1 sequence: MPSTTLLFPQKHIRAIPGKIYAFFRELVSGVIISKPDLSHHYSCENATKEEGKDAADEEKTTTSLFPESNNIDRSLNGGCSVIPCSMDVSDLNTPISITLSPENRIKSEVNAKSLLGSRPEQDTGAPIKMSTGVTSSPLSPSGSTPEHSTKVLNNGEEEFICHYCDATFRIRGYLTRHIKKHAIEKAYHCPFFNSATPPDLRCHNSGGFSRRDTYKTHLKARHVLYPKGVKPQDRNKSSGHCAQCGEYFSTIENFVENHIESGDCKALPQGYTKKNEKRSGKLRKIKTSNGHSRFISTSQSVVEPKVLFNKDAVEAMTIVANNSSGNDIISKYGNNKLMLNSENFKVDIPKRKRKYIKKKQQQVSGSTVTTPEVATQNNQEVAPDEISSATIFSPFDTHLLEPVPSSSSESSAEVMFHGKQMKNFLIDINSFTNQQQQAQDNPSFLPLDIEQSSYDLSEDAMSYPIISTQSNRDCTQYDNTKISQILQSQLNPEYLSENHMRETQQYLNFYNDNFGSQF
Method in brief: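 Each ungapped eight-base word and its reverse complement, pooled, received an E-score from the Universal PBM Analysis Suite. Underlying scans, normalised with masliner, recorded fluorescent anti-GST bound to GST-tagged yeast transcription factors. These were applied at about 100-200 nM to universal all-10-mer Agilent arrays double-stranded by primer extension.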

Row | Sequence | PBM E-score
1 | AATTTCAC | 0.122
2 | ACTCGTCT | -0.0843
3 | ACATCTTA | -0.0452
4 | GGACATCC | -0.0445
5 | ACAGCAGA | -0.101
6 | CCAAAGGG | -0.0374
7 | CCTACACG | -0.112
8 | CCTTGCGC | 0.138
9 | GAGTCTAC | -0.203
10 | CAGGGGGA | -0.414
11 | ATGTTGAC | 0.0447
12 | CTATGCTA | -0.0393
13 | ATATCGAT | 0.127
14 | AAAGCTTC | -0.205
15 | GCTTCCCA | -0.0996
16 | CTATCAAC | 0.11
17 | TTAATGAA | 0.216
18 | GTTGACGA | -0.118
19 | CACCATAC | -0.0768
20 | ATAAATTA | 0.281
21 | ACCAGTCA | -0.00407
22 | CAAATTTG | 0.0919

Row | Sequence | PBM E-score
23 | TACACCCA | -0.231
24 | GGCGTTTA | 0.337
25 | GTTTACTA | 0.164
26 | CAGTGCAA | -0.028
27 | GTTTCTAA | 0.175
28 | CGTATGTC | 0.123
29 | ACTATCTC | 0.0706
30 | AAGTTAAC | 0.125
31 | CCAATCCC | -0.246
32 | CAACTCTC | -0.183
33 | GTCTAACA | -0.0907
34 | CGGAACGA | 0.0736
35 | ATTGAGTC | -0.146
36 | GTCTACGA | -0.24
37 | AGTTGTCC | -0.143
38 | AAATTGCA | -0.024
39 | CACGTTCA | -0.126
40 | CCCGGTTC | -0.157
41 | AAACCGCA | -0.0456
42 | GACCCTGA | -0.256
43 | TCGGGACA | -0.174
44 | AGTAGGTG | -0.132

Row | Sequence | PBM E-score
45 | CATCTATC | 0.16
46 | TGCAGAAA | 0.208
47 | AGGACAAA | 0.138
48 | GCGCGATA | 0.316
49 | ATCTTCAC | 0.0358
50 | ACGCTTCA | -0.0376
51 | CCCTACAG | -0.178
52 | GATTCAGA | 0.0318
53 | CCGGCTTA | -0.24
54 | AAACCCGT | 0.106
55 | GACCGCTC | -0.203
56 | CTCTCCAG | -0.168
57 | ACGGTGTC | -0.0106
58 | CGATCTGA | -0.235
59 | ACAGCGGC | 0.127
60 | ACATATGT | 0.0136
61 | AGCTCCCC | -0.293
62 | AAGATATT | 0.0449
63 | GTATGTTA | 0.0941
64 | GATTAGTA | 0.00337
65 | CGACTCGC | -0.154
66 | ACCTCCGG | -0.242

Row | Sequence | PBM E-score
67 | AGAATCCA | -0.169
68 | GAGAATTA | -0.105
69 | ACCAGACC | -0.143
70 | CCAACGAC | -0.0247
71 | ATAACGAC | 0.0628
72 | TAAAACAA | 0.157
73 | GGGGAATA | -0.302
74 | GATTAATA | 0.211
75 | CGATAAAC | 0.0166
76 | GTCTCAGA | -0.0609
77 | GCTTGCCC | -0.152
78 | GCGTCAGC | -0.0592
79 | CGCTATAC | -0.145
80 | AGGCTACC | -0.157
81 | ATGTTTTG | 0.127
82 | CAGTACGG | 0.141
83 | GATTGGGC | 0.0267
84 | GGAAAACA | 0.0206
85 | CTCTATCA | -0.129
86 | ACTGACCT | -0.181
